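All cell lines were grown in 96-well plates and treated with compound for 48 hours. The concentration for 50% growth inhibition is given as GI50. TGI marks complete inhibition of growth.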 Peptide text beside a SMILES is read from it.

For this assay, the system named is NCI-H322M lung. The assay is described as follows: growth of human tumour cells (NCI), 48 h.
`COc1cc(/C=C(\NC(=O)c2ccccc2)c2nc3[nH]c(=S)[nH]c(=O)c3[nH]2)cc(OC)c1OC` yielded a TGI of over 100 µM.

Compound `COc1ccccc1N1C(=O)CSC1c1c[nH]c2ccccc12` (centres undefined) returned a TGI of over 100 µM. `CCCCCCCCCCC(=O)CC(=O)c1c(O)cccc1O`: the TGI was over 100 µM.

Take `NC(N)=NCCC[C@H]1NC(=O)[C@@H](CCC(=O)O)NC(=O)[C@@H](CC(=O)O)NC(=O)[C@@H](CCC(=O)O)NC(=O)[C@H](Cc2c[nH]c3ccccc23)NC1=O` (HELM PEPTIDE1{W.[dE].[dD].[dE].[dR]}$PEPTIDE1,PEPTIDE1,1:R1-5:R2$$$V2.0): the TGI is over 7.5 µM. As for `C=C1CC(C)(COc2ccc3c(C)c(C)c(=O)oc3c2C)OC1=O` (centres undefined), the TGI is 22.6 µM. `Clc1ccc(-c2nnc3c4nnc(-c5ccc(Cl)cc5Cl)n4c4ccccc4n23)c(Cl)c1` had a TGI of over 100 µM.

In turn, `O=C(/C=C/c1ccc2ccccc2c1)NCc1ccc(C(=O)NCc2ccccc2)cc1` yielded a TGI of over 100 µM.

In the case of `Clc1ccc(C(Cn2ccnc2)OCc2ccsc2Cl)c(Cl)c1` (centres undefined), the GI50 was 4.47 µM and the TGI was found to be 17.1 µM. With `CC(C)(CNC(=O)/C(Cl)=C(/Cl)C(=O)O)CNC(=O)/C(Cl)=C(/Cl)C(=O)O`, the TGI was over 100 µM. Compound `COc1nc(-c2c[nH]c3ccccc23)cnc1N` returned a TGI of over 100 µM. For the compound `COC(=O)C1C(OS(=O)(=O)O)CCC2CN3CCc4c([nH]c5ccccc45)C3CC21` (centres undefined), the TGI is over 100 µM. For the compound `CCOC(=O)CCc1cccc2c1oc1c(CCNC(=O)OCC3c4ccccc4-c4ccccc43)cccc12`, the TGI was determined as 56.3 µM. In turn, `CC(C)=CCNc1ncnc2c1c(C#N)cn2C1OC(CO)C(O)C1O` (centres undefined) gave a TGI of over 100 µM.

For `O=C(Nc1ncc(Cc2ccccc2)s1)c1sc2ccccc2c1Cl`, the GI50 was 3.3 µM and the TGI was over 74.7 µM.

The compound `CCn1c(O)c(C=Nc2ccccc2)s/c1=N/Nc1ncc(CC(=O)Nc2ccccc2C)s1` came in with a TGI of over 100 µM. For the compound `CN[C@@H](C)C(=O)N[C@H]1CCS[C@H]2CC(C)(C)[C@@H](C(=O)N[C@H]3c4ccccc4C[C@H]3OCC#CC#CCO[C@@H]3Cc4ccccc4[C@@H]3NC(=O)[C@H]3N4C(=O)[C@@H](NC(=O)[C@H](C)NC)CCS[C@H]4CC3(C)C)N2C1=O`, the GI50 was over 50 µM and the TGI was over 50 µM.
